The source gives no read counts; variants with many changes may rest on few reads.

B1: LINE1-mini (parent)
chain: GGCAGAGCUCAACACAGCGUGGCAAAGUGGCUGUGGCUAGACUGCC

The data set covers variants of B1. Briefly: self-cleavage, relative activity (ratio to wild type); higher = more cleavage; in vitro, sequencing; the parent is a self-cleaving ribozyme.
Turning to G7A C10U C18U G35C, the self-cleavage was determined as 0.01.

Turning to G7A C10G G17U G22A G27A G29C C31U, the self-cleavage came to 0.01.

Turning to G7A C13G C18G A26U, the self-cleavage was 0.04.

For G7A C18A C42A, the self-cleavage came to 0.24.

As to G7A U32G C37G, the self-cleavage stood at 0.02.

For G7A C13A U32G, the self-cleavage came to 0.07.

For G7C A26C U43A, the self-cleavage was determined as 0.54.

Regarding G7A G27A A41G, the self-cleavage was 0.14.

Turning to G7A G27C U28G G44C, the self-cleavage was 0.1.

Consider G7A G21U G27U C37A, for which the self-cleavage amounted to 0.13.

As for G7A G17A C23A, the self-cleavage is 0.1.

In the case of G7A G33A C42A G44A, the self-cleavage was determined as 0.14.

Consider G7A C13A G21A G30U G36C, for which the self-cleavage is 0.31.

Consider G7C A16C U34A, for which the self-cleavage is 0.01.

Consider G7A C8A C31A, for which the self-cleavage amounted to 0.27.

Turning to G7A C37A C42G, the self-cleavage was determined as 0.2.

Regarding G7C A16G C42A, the self-cleavage is 0.01.

On to G7C A25U C31U, for which the self-cleavage was determined as 0.11.

Consider G7A C15A G19C G44U, for which the self-cleavage came out at 0.21.

G7A G19U A25U: the self-cleavage was found to be 0.05.

With G7A G30A G40U, the self-cleavage stood at 0.42.

For G7A C13A G21U G30A, the self-cleavage worked out at 0.17.

As to G7A C10A C15A G22C, the self-cleavage stood at 0.02.

With G7A G19A C37U, the self-cleavage turned out to be 0.33.

Take G7A G29A C42U: the self-cleavage came to 0.16.

Take G7A C18U C42A: the self-cleavage was found to be 0.05.

Consider G7A C15G C37G, for which the self-cleavage came to 0.05.

Turning to G7A C15A A16U G17U U32C C37U U43A, the self-cleavage is 0.16.

On to G7A C10G A25U U28C, for which the self-cleavage came to 0.02.

Take G7A C10A G17A A25C G36U: the self-cleavage was 0.01.

Regarding G7C A26C G33U, the self-cleavage turned out to be 0.03.

In the case of G7A G17C G29A G30C, the self-cleavage was 0.01.

With G7A G21A C31A G36A, the self-cleavage was found to be 0.19.

G7A C31A G40U: the self-cleavage was found to be 0.09.

As to G7C A14G U20C G27A G29U, the self-cleavage was 0.02.

As for G7A C37U G40C, the self-cleavage is 0.32.

Regarding G7A C8A G30A, the self-cleavage came to 2.62.

With G7A C18A U32A A41C, the self-cleavage was 0.11.

Consider G7C A12C C18G, for which the self-cleavage amounted to 0.01.

For the variant G7A C15G A26U, the self-cleavage is 0.42.

On to G7A U20G C45A, for which the self-cleavage was determined as 0.12.

Consider G7A C10U G22C G35C, for which the self-cleavage was determined as 0.03.

As for G7A C23A A24U G35C, the self-cleavage is 0.03.

Take G7A C15U A16U U34G: the self-cleavage amounted to 0.11.

On to G7A U9C A11U G40U, for which the self-cleavage stood at 0.01.

G7A U9A C18U: the self-cleavage amounted to 0.24.

Turning to G7A C37A C42U U43C C45A, the self-cleavage is 0.09.

For G7A G19A U28G, the self-cleavage is 0.06.

On to G7A C15G G30U, for which the self-cleavage was 0.46.

In the case of G7A C10A A11G G29U, the self-cleavage came out at 0.01.

With G7C A11U C15U A24U U38G, the self-cleavage was determined as 0.01.

As for G7A C8G C23U, the self-cleavage stood at 0.14.

For G7A G27C G35A A39U A41G, the self-cleavage was 0.01.

With G7A U9G A14C G21U G40A, the self-cleavage is 0.02.

Regarding G7A G19C G40A C46U, the self-cleavage was 0.05.

Turning to G7A C31A C42G C45G, the self-cleavage was found to be 0.06.

Regarding G7C A14U C15U G17U U38A, the self-cleavage amounted to 0.04.

In the case of G7A G19C G30U, the self-cleavage came to 0.06.

Regarding G7A C10G C13A A26G C46G, the self-cleavage worked out at 0.01.

Take G7A U34A G36C: the self-cleavage came to 0.02.

For the variant G7A G21C G27U, the self-cleavage turned out to be 0.05.

For the variant G7A G35U G40U, the self-cleavage came out at 0.03.

Take G7A U32A G44C: the self-cleavage is 0.06.

With G7A U20C G27C, the self-cleavage is 0.09.

Turning to G7C A16C C23G A24U A26U C31A U34C, the self-cleavage stood at 0.01.

Take G7A C31G U32G U34A C46G: the self-cleavage was found to be 0.06.

Take G7A C8A G21U A41C C45G: the self-cleavage amounted to 0.28.

In the case of G7C A12G G19U A26C, the self-cleavage worked out at 0.02.

For G7A C23U G29A U32G, the self-cleavage is 0.74.

With G7C C8A C18G G29U, the self-cleavage was determined as 0.3.

As for G7A G17C U34A, the self-cleavage came out at 0.02.

As for G7C A16G C18U G33U, the self-cleavage was 0.02.

Turning to G7A G21A A39C G44U, the self-cleavage came out at 0.27.

Regarding G7A G17C G35C, the self-cleavage turned out to be 0.12.

For the variant G7A U9A U38A C45U, the self-cleavage came out at 0.11.

In the case of G7A G19A C31A C45G, the self-cleavage was determined as 0.17.

For G7A G27C C42U G44A, the self-cleavage turned out to be 0.19.

Take G7A C15U C18U C31U: the self-cleavage was determined as 0.08.

Turning to G7A U9G C15A G30U U43C, the self-cleavage was found to be 0.06.

With G7A G36A A41U, the self-cleavage stood at 0.01.

Consider G7A C13A G17U A24U A25G, for which the self-cleavage was determined as 0.04.

For the variant G7A U28G A39U, the self-cleavage is 0.09.

Consider G7A C8A U9C C18A G33C, for which the self-cleavage came out at 0.05.

Regarding G7A U9G U34C U38A, the self-cleavage was 0.02.

Turning to G7A C15A G17U C23A A24C C37A, the self-cleavage was 0.06.

With G7A U9C C18U G19C G40C, the self-cleavage is 0.04.

Consider G7A C10G C15U A24C, for which the self-cleavage turned out to be 0.03.

For G7C A11G C23A U38A C42U, the self-cleavage amounted to 0.01.

G7C A25U A39C: the self-cleavage came to 0.09.

Take G7A U9G G17C C18A G27U: the self-cleavage stood at 0.04.

G7A C8G G19C G33A: the self-cleavage was 0.02.

In the case of G7A G19A C23U G33C, the self-cleavage was 0.15.

With G7A G33C A39G, the self-cleavage stood at 0.22.

On to G7A G27U U38G, for which the self-cleavage came to 0.01.

With G7A C15A U32A, the self-cleavage came out at 0.09.

For the variant G7C A41C C42A, the self-cleavage came out at 0.12.

As for G7A G17C G40C, the self-cleavage is 0.03.

G7A C15A U28G C42A: the self-cleavage stood at 0.69.

In the case of G7A G33U C46U, the self-cleavage amounted to 0.23.

For the variant G7A G21A G44U, the self-cleavage was 0.25.

As to G7A C23U C31U U32G A41G G44U, the self-cleavage stood at 0.22.

G7A C10A G17U G30A U34G: the self-cleavage turned out to be 0.02.

Consider G7A G19A A26U C37U U38G, for which the self-cleavage stood at 0.02.

As to G7C A25C A39U, the self-cleavage worked out at 0.07.

For G7C A11G C23U G36C C37G C46A, the self-cleavage was found to be 0.01.

G7A C8U C18U C23U: the self-cleavage was 0.34.

As to G7A C13A G33C, the self-cleavage came to 0.1.

Turning to G7A G21A G36A U38G, the self-cleavage is 0.01.

G7A U28A U38G G44C: the self-cleavage amounted to 0.02.

Regarding G7A G29C G30U G40U, the self-cleavage was 0.42.

Consider G7A C8A G21U A26G C31U, for which the self-cleavage came to 0.18.

On to G7A C8U G27C C45U, for which the self-cleavage stood at 0.15.

In the case of G7C A11G C31G, the self-cleavage came out at 0.02.

For G7A C23U A41G, the self-cleavage came to 0.58.

Regarding G7A G17U G19A, the self-cleavage came to 0.26.

Turning to G7A C18U U34G C37G, the self-cleavage stood at 0.03.

Regarding G7A C10U C31A, the self-cleavage is 0.01.

As to G7A G21U G22A G29C U38C C46G, the self-cleavage amounted to 0.03.

For G7C A12C A14U G30U U38A, the self-cleavage was determined as 0.

For G7C A16U G22U, the self-cleavage turned out to be 0.07.

As to G7A C10G C13U G36C U43A, the self-cleavage amounted to 0.02.

In the case of G7A C8G C10G A11C G27U, the self-cleavage stood at 0.02.

In the case of G7A C13U A24U A39U, the self-cleavage was 0.08.

As to G7A G21A A24C G40C, the self-cleavage stood at 0.08.

Turning to G7A G19C G36U, the self-cleavage was found to be 0.1.

For the variant G7C A11C G40U C46A, the self-cleavage was found to be 0.06.

As to G7A G29C C46A, the self-cleavage was 0.11.

As to G7A C18G U28G G35A C45U, the self-cleavage came out at 0.08.

As to G7A C13G C45G C46G, the self-cleavage was 0.04.

As for G7A C13G C37A C46A, the self-cleavage is 0.03.

As for G7A G17A G29C G35C C45A, the self-cleavage amounted to 0.07.

G7C A16G U38A: the self-cleavage turned out to be 0.

Turning to G7A U34C C46G, the self-cleavage worked out at 0.07.

G7A U38A U43C: the self-cleavage was 0.06.

As for G7A C23U A41U C42U C46A, the self-cleavage was found to be 0.06.

As for G7A G17C G19U, the self-cleavage is 0.08.

Regarding G7A C13G C15U U34C C37A, the self-cleavage worked out at 0.22.

Take G7A C13U A25C G40C: the self-cleavage was determined as 0.11.

On to G7A U9A A16G G22A G30U, for which the self-cleavage came to 0.03.

Turning to G7A C8G G21C, the self-cleavage worked out at 0.16.

As to G7A G22C C23A A24G, the self-cleavage worked out at 0.07.

As for G7C A12C U34A G44U C46U, the self-cleavage amounted to 0.02.

G7A C18A G44U: the self-cleavage is 0.05.

For G7A U9A G40A, the self-cleavage turned out to be 0.14.

Regarding G7A G17A G21U U32C, the self-cleavage was 0.03.

In the case of G7C A14U G22U C31U, the self-cleavage was 0.04.

In the case of G7A C8U A14C G29A, the self-cleavage came to 0.01.

Consider G7A C18A G19U U20C U34C, for which the self-cleavage was 0.11.

In the case of G7A C31G C42U, the self-cleavage worked out at 0.24.

As for G7A U9G C10G A12G G29A, the self-cleavage came out at 0.

Take G7A U9G A26U C42U: the self-cleavage is 0.06.

Consider G7A U20A G29U G40U G44U, for which the self-cleavage is 0.11.

As for G7C A11U A16C A25C, the self-cleavage turned out to be 0.01.

Regarding G7A G17C G29A G30U U43A, the self-cleavage came to 0.06.

In the case of G7A G33A G35C, the self-cleavage is 0.05.

As to G7A C10G C13A A41U G44C, the self-cleavage is 0.04.

As to G7A U9G C18U G35U U38A, the self-cleavage is 0.01.

With G7A G17C U28A G29U U32A, the self-cleavage came to 0.13.

As to G7A G17A G22A U28G, the self-cleavage was 0.14.

For the variant G7A C10A C46U, the self-cleavage amounted to 0.03.

G7A G33A C37G A41U: the self-cleavage is 0.01.

As to G7A G17U C31A, the self-cleavage turned out to be 0.68.

For G7A C23U A24G G30U G35C A39G, the self-cleavage stood at 0.02.

G7A C10A C23A C42U: the self-cleavage turned out to be 0.

As to G7A C10A G29A G36U, the self-cleavage was found to be 0.13.

Consider G7A U28C G36C, for which the self-cleavage worked out at 0.06.

For the variant G7A G17C C37A, the self-cleavage is 0.17.

Source of the values: the RNAGym collection of RNA variant scans (doi:10.7554/elife.90254).
